Usually % Inhibition stands for the relative decrease from the control value, in per cent.

The structures appear in SMILES notation. The campaign covered roughly 150,000 compounds. About 540 (0.36%) showed an effect of 50% or more. Some of the results follow.

This assay relates to Plasmodium falciparum. The experiment in a line: Primary screen in NF54 nanoGlo assay, in single point, at 2uM, 72h; a lower Z score goes with more inhibition. Type of assay: functional, Erythrocyte. The conditions noted are these: timepoint 72 hour.
Turning to `O=C(c1ccccc1F)N1CCC(N2C(=O)N(Cc3cccnc3)C[C@]23CCOC3)CC1`, the “% Inhibition” value is listed as -14% and the Z score is 1.93.
On to `Cc1ccc(C)c(OCc2cc(=O)n3ccc(C)cc3n2)c1`, for which the “% Inhibition” value stood at 7% and the Z score is given as -0.8.
The like results for `COc1cc(OC)nc(NC[C@H]2CN(C)CCO2)n1` were, in that order, -3% and 0.39.
The matching figures for `CC1CN(c2ccc(NC(=O)N(C)CC3CC3)cc2)CC(C)O1` (centres undefined): -14% and 1.76.
As to `CC(C)c1nc(Cn2cnc(-c3ccncc3)c2)no1`, the “% Inhibition” value came out at 19% and the Z score is -2.5.
The matching figures for `COc1cc(NCCc2scnc2C)ncn1`: 13% and -1.79.
The like results for `Cc1cc(S(=O)(=O)N(C)[C@H]2CCS(=O)(=O)C2)sc1Cl` were, in that order, -5% and 0.57.
The matching figures for `CCOCCCCNC(=NC)N1CCCCC1`: -6% and 0.68.
With `c1ncc(-c2ccc(-c3noc([C@@H]4CCCN4C4CCOCC4)n3)cn2)cn1`, the “% Inhibition” value amounted to 16% and the Z score is listed as -1.81.
The matching figures for `NC(=O)C1(NC(=O)c2n[nH]c(=O)c3ccccc23)CCCC1`: -11% and 2.01.
The like results for `O=C1NCCCc2[nH]c(-c3ccc(-n4cccn4)cc3)nc21` were, in that order, -24% and 2.74.
The like results for `Cc1ccccc1CNC(=O)CN1C(=O)CCCc2cc(S(=O)(=O)N3CCCCC3)ccc21` were, in that order, -13% and 1.63.
For `Cc1c(S(=O)(=O)N2CCN(C(=O)c3ccc(F)cc3)CC2)cnn1C(F)F`, the “% Inhibition” value is listed as 37% and the Z score was -5.31.
For the molecule `CC1CC(NC(=O)c2cccc3nccn23)C(=O)N1c1ccccc1` (centres undefined), the “% Inhibition” value is on record as -4% and the Z score is 0.41.
The matching figures for `CC(=O)Nc1ccc(C)cc1S(=O)(=O)N1CCc2c(c(-c3nc(-c4ccccc4)no3)nn2C)C1`: -14% and 1.61.
The like results for `Cc1ccc(CNc2nc(-c3cccs3)n[nH]2)cc1` were, in that order, -33% and 3.88.
For `Cc1[nH]nc(C(=O)NC2(C(F)F)CC2)c1C`, the “% Inhibition” value is given as 8% and the Z score was -1.17.
The matching figures for `O=C(CN(Cc1ccccc1)C(=O)c1ccccc1)Nc1ccc(N2CCN(C(=O)c3ccccc3F)CC2)cc1`: -1% and 0.23.
The like results for `N[C@@H](CC(F)(F)F)c1ccc(Br)cc1` were, in that order, -12% and 1.32.
The matching figures for `Cn1c(N2CCc3ccccc32)c(C#N)c(=O)n(C)c1=O`: -6% and 0.75.
In the case of `CCN1C(=O)C[C@H](C(=O)NCCc2csc(C)n2)[C@H]1c1nccn1CC`, the “% Inhibition” value is listed as -8% and the Z score stood at 1.17.
The like results for `COCc1nc(N[C@H]2CCCN(Cc3ccccc3)C2)c2cnn(C)c2n1` were, in that order, -4% and 0.54.
The like results for `COc1cc(OC)c(CN2C[C@H]3CN(C)C[C@H]3C2)cc1Cl` were, in that order, 0% and 0.07.
As to `O=C1C2CCCN2C(=O)N1CC(O)COCc1ccccc1` (centres undefined), the “% Inhibition” value was -11% and the Z score is listed as 1.6.
The matching figures for `CN1C[C@@H](NS(=O)(=O)c2cccnc2)Cc2ccccc21`: 18% and -2.31.
The matching figures for `COc1ccc(Cn2nc(C)cc2NC(=O)N2CCCNCC2)cc1OC`: -5% and 0.77.
The like results for `CCN(Cc1cnn(C)c1)C[C@H]1CN(c2ccccc2)C(=O)O1` were, in that order, -12% and 1.5.
As for `O=S1(=O)NC[C@H](O)CN(Cc2cc3ccccc3o2)C[C@]2(COc3ccccc31)C[C@@H](O)[C@@H](O)C2`, the “% Inhibition” value is -5% and the Z score amounted to 0.68.
The like results for `c1cc2nnnn2nc1N1CCC(c2nnc3n2CCC3)CC1` were, in that order, -11% and 2.1.
`Cc1ccc(NCc2cnc(C)nc2C)c(OC[C@H]2CCCO2)c1`: the “% Inhibition” value is recorded as -2% and the Z score is listed as 0.41.
The matching figures for `CCCc1cc(C(=O)N(Cc2cccnc2)C2CCN(C)CC2)cs1`: -8% and 1.03.
The like results for `CC(C)NC(=O)CN(C)S(=O)(=O)c1ccccc1` were, in that order, -4% and 0.62.
The matching figures for `CO[C@@](C)(CNC(=O)NCc1cccs1)c1ccccc1F`: 17% and -2.2.
As for `CC1CC(C)CN(C(=O)Nc2cccc3cccnc23)C1` (centres undefined), the “% Inhibition” value is -7% and the Z score was found to be 1.36.
The matching figures for `Cc1ccc(CN2CCN(Cc3nc(-c4ccc(Cl)cc4)no3)C[C@@H]2CCO)o1`: -5% and 0.92.
The matching figures for `O=C(c1cc2ccccc2[nH]1)N1C[C@H]2C[C@H](C1)[C@@H]1CCCC(=O)N1C2`: -4% and 0.83.
The like results for `Cc1c(-c2ccccc2)nc2c(c1N)c(-c1ccccc1)c(-c1ccccc1)n2Cc1ccccc1` were, in that order, 4% and -0.41.
Turning to `Cc1cnc(CCNC(=O)C(F)(F)C2(O)CCCC2)s1`, the “% Inhibition” value is -22% and the Z score stood at 2.25.
The like results for `COC[C@@H]1CCCN1C(=O)CN1CCCCCC1` were, in that order, -4% and 0.82.
On to `C/C(=C\c1ccccc1)CN1CCC(C(=O)N(C)Cc2ccccc2)CC1`, for which the “% Inhibition” value is listed as 28% and the Z score was -3.12.
The like results for `CC1CN(c2ccc(C(F)(F)F)cc2)CC(C)N1C(=O)[C@@H]1CC[C@H](C(N)=O)O1` (some centres undefined) were, in that order, -3% and 0.52.
As for `COCc1nc(CNc2cc(C)nc(Nc3cccc(O)c3)n2)no1`, the “% Inhibition” value is 14% and the Z score is reported as -1.99.

For the origin of these results see ChEMBL document CHEMBL4888484, “Replenishing the malaria drug discovery pipeline: Screening and hit evaluation of the MMV Hit Generation Library 1 (HGL1) against asexual blood stage Plasmodium falciparum ,using a nano luciferase reporter read-out” (2022).
